# In all, about 110,000 compounds were measured (“z-score”: median about -0.1, highest 2% from about 2 on). The list shows a part of the results. The source made the active and inactive calls.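 How the source made its calls: active means z-score in the third read window above 3 or below -3; inactive means the rest.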
# Target: Metabotropic glutamate receptor 8 (Rattus norvegicus) (UniProt P70579)
# Assay: mGluR8 Gi/Go-coupled signaling modulation – cell-based, rat, thallium flux, HTS, primary screen (AID 488969)
# Conditions: HEK293 rat mGluR8, GIRK (G protein-gated inwardly rectifying potassium channel) thallium flux, FluoZin2; at 10 µM; stronger effect = higher value; submaximal glutamate (EC20) added with thallium
# Sequence of UniProt P70579 (P70579 whole entry, looked up): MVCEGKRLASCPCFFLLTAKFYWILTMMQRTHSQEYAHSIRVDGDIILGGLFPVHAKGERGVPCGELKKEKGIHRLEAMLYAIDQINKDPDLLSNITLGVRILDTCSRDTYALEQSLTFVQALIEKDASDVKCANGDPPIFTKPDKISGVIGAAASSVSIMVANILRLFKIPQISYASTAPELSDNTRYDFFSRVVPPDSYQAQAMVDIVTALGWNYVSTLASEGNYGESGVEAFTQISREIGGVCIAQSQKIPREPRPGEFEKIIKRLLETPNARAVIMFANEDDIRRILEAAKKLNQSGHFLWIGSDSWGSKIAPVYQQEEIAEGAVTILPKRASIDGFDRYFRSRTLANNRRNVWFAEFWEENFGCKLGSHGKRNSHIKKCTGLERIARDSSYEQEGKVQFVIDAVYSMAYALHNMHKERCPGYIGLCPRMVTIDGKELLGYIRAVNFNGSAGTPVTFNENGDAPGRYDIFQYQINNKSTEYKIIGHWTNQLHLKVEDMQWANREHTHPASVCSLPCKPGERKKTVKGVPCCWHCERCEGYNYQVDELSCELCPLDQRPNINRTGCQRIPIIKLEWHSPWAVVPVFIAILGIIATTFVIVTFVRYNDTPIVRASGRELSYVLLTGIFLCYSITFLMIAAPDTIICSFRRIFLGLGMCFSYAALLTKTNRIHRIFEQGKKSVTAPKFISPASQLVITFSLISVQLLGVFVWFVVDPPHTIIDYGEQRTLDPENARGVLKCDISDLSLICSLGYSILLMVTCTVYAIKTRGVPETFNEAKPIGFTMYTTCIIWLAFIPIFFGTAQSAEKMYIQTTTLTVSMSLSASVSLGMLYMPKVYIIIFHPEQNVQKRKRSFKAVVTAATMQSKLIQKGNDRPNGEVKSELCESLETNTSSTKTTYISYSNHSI
row,Structure (SMILES),z-score
1,COc1ccc(NC(=O)CSc2nnc(-c3ccoc3C)n2CC2CCCO2)cc1 (configuration not stated),0.797
2,Cc1ccc(NC(=O)CCSc2nnc3ccccn23)cc1,0.176
3,COc1ccc(N2CCN(CC(=O)N3N=CCC3c3ccccc3)CC2)cc1 (configuration not stated),-0.137
4,COc1ccc(NC(=O)C(NC(=O)CC2NC(=O)NC2=O)c2ccccc2)cc1 (configuration not stated),0.0457
5,CC1CCc2c(sc3ncnc(N4CCOCC4)c23)C1 (configuration not stated),-1.25
6,c1ccc(-c2noc(CSc3nnnn3-c3ccccc3)n2)cc1,2.18
7,CCN(CC)S(=O)(=O)c1ccc(-n2cnnn2)c(C)c1,0.0792
8,CCn1cc([N+](=O)[O-])c(C(=O)N2CCN(C(=O)c3ccco3)CC2)n1,-0.0369
9,CN(C)C1NC(=O)c2cc(-c3ccccc3)sc2N1 (configuration not stated),0.0566
10,NC(=O)C1CCCN(S(=O)(=O)c2ccccc2)C1 (configuration not stated),-0.127
11,CCc1ccccc1NC(=O)c1cnc2n(c1=O)CCS2,-0.074
12,O=C(CC1CCCCC1)NCCCN1CCOCC1,-0.0911
13,O=C1c2ccccc2C(=O)N1Cc1nc2ccccc2c(=O)n1CCCN1CCOCC1,-0.0405
14,CCN(CC)CCNc1ncnc2c1[nH]c1ccc(OC)cc12,-0.361
15,COc1ccc(NC(=O)c2nn(C34CC5CC(CC(C5)C3)C4)cc2[N+](=O)[O-])cc1,-0.0541
16,CCc1nnc(NC(=O)C(=O)NCCOC(=O)c2ccccc2Cl)s1,-0.184
17,COc1ccc(/C=c2\s/c(=C/C(=O)c3ccc(C)cc3)[nH]c2=O)cc1OC,0.46
18,O=c1[nH]c2cc(Cl)ccc2n(CCNc2ncc(C(F)(F)F)cc2Cl)c1=O,0.182
19,Cn1c(NCc2c(O)ccc3ccccc23)nc2ccccc21,-0.4
20,C/C(CC(=O)Nc1ccccc1Br)=N\NC(=O)C(=O)N1CCCC1,0.773
21,Cc1ccc(Cl)cc1NC(=O)CCn1cccc1,0.427
22,CCCCc1nc(NCCN)c(C#N)c2c1CSC(C)(C)C2,0.0415
23,CC1(C)Cc2ccccc2-c2nnc(SCC(=O)Nc3nc4ccccc4s3)n21,active: -3.05
24,COc1ccc(NC2CC(=O)N(CCc3ccccc3)C2=O)cc1 (configuration not stated),-0.102

row,Structure (SMILES),z-score
1,O=C(O)c1cccc(NCc2cccnc2)c1,-0.189
2,CN(C)C/C(Cl)=C(\Cl)c1ccccc1,-0.465
3,c1cc(CSc2nnc(-c3ccc4c(c3)OCO4)o2)ccn1,-0.127
4,Cc1cc(C)c(C#N)c(Nc2ccccc2Cl)n1,-0.639
5,CCN(C)c1ccc(/C=N\n2nnnc2N)cc1,0.204
6,N#CCC1c2ccccc2CCN1C(=O)Nc1cccc(C(F)(F)F)c1 (configuration not stated),-0.233
7,Cc1c(NC(=O)/C(C#N)=C/c2ccc(-c3ccccc3Cl)o2)c(=O)n(-c2ccccc2)n1C,0.0143
8,COc1ccccc1N1CCN(C(=O)CSc2nnc(NC(=O)c3ccco3)s2)CC1,0.554
9,CNS(=O)(=O)c1cccc(C(=O)OCC(=O)c2cc(C)n(-c3ccc4c(c3)OCO4)c2C)c1,1.53
10,CCOC(=O)N1CCC(NC(=O)Cc2cn(C)c3ccccc23)CC1,-0.169
11,O=C(Oc1ccc(N(Cc2cccs2)C2=NS(=O)(=O)c3ccccc32)cc1)c1ccccc1F,-0.287
12,COc1ccc(CNC(=S)Nc2cc(OC)ccc2OC)cc1,0.0129
13,CCn1c(SCC(=O)Nc2cccc(C)c2)nc2c(c1=O)SC(C)C2 (configuration not stated),-1.46
14,Cn1nc([N+](=O)[O-])nc1Oc1ccc2ccccc2c1,-0.216
15,CCN(CC)S(=O)(=O)c1ccc(NC(=O)CCC2CCCCC2)cc1,-0.664
16,CC1CCN(c2c(NCC3CCC(C(=O)N4CCc5ccccc5C4)CC3)c(=O)c2=O)CC1 (configuration not stated),1.82
17,CC(C)(C)c1cc2cccnc2n1Cc1ccccc1,1.05
18,Cc1ccc2[nH]cc(C(=O)CN3CCC4(CC3)OCCO4)c2c1,0.75
19,COc1ccccc1CCNC(=O)CSc1nc(-c2ccco2)cc(C(F)(F)F)n1,0.158
20,O=[N+]([O-])c1ccccc1/C=N/n1c(COc2ccccc2)n[nH]c1=S,0.0224
21,Nc1cc2ccccc2oc1=O,-0.206
22,COc1ccc(NS(=O)(=O)c2cc(NC(=O)c3cnc(C)cn3)ccc2N2CCCCC2)cc1,-0.33
23,O=C(NCCN1CCOCC1)c1cnn2c(-c3ccccc3)cc(-c3ccccc3)nc12,-0.617
24,O=C(COc1ccc(S(=O)(=O)NC2CCCCC2)cc1)NCC1CCCO1 (configuration not stated),-0.128

row,Structure (SMILES),z-score
1,COc1cccc(NC(=S)NCCC(c2ccccc2)c2ccccc2)c1,0.259
2,CCOC(=O)C1=C(CC)Nc2ccccc2N=C1NC(=O)Nc1ccccc1OC,0.249
3,Cc1[nH]c(=O)c(C(=O)/C=C/c2ccccc2F)c2c1CCCC2,-0.788
4,COc1cc(C)c(CNc2cc(C)cc(C)c2)cc1C,-0.229
5,COc1ccc(OC)c(-c2cc(C(=O)NCc3cccs3)no2)c1,-0.449
6,Cc1c2c(n3c(nc4ccccc43)c1C#N)N(Cc1cccnc1)CC2,-2.28
7,COc1cc(/C=N/NC(=O)CNc2n[nH]c(=O)[nH]c2=O)ccc1O,0.134
8,COc1ccc(NC(=O)C(c2cc3c(cc2[N+](=O)[O-])OCO3)N(C)Cc2ccccc2)cc1 (configuration not stated),-0.0902
9,COc1ccc(CCN2C(=O)CC(N3CCOCC3)C2=O)cc1OC (configuration not stated),-0.187
10,CCn1cc(C(=O)OCc2ccc(F)cc2)c(=O)c2ccc(C)nc21,-0.684
11,O=C(CCl)Nc1ccccc1Sc1ccc(Cl)cc1,-0.191
12,CC12c3ccccc3C(c3ccccc31)C1C(=O)N(Cc3cccnc3)C(=O)[C@H]12 (some centres not stated),0.0392
13,O=S(=O)(NCC1CCCO1)c1cc(Cl)ccc1Cl (configuration not stated),-0.0137
14,CC1C/C(=N/N=C2/NC(=O)CS2)CC(C)(C)C1 (configuration not stated),-0.18
15,CCOc1ccc(Br)cc1S(=O)(=O)Nc1ccccc1N1CCOCC1,0.121
16,Nc1ncnc(Nc2cccc(C(F)(F)F)c2)n1,0.115
17,COC(=O)c1ccc(NC(=O)CSC2=NC(=O)C(c3ccccc3)C(=O)N2)cc1 (configuration not stated),-0.751
18,Cc1ccc(NC(=O)c2cncc(Br)c2)c([N+](=O)[O-])c1,0.0419
19,CC1=N/C(=C\c2ccc3c(c2)OCO3)C(=O)N1c1ccc(C(=O)O)cc1,-0.2
20,CCOc1ccccc1OCC(=O)NC1CCCCC1,-0.557
21,CN(C)CCCn1c(NC(=O)C2CCCCC2)nc2ccccc21,0.184
22,COc1ccc2c(CC(=O)Nc3nnc(C4CC4)s3)coc2c1,-0.329
23,O=C(NCc1ccncc1)C(=O)NCC(c1ccccc1)c1ccccc1,-1.76
24,Clc1cccc(C[n+]2cc(-c3ccccc3)n3c2CCC3)c1,-0.151

# From PubChem BioAssay AID488969 (Vanderbilt High Throughput Screening Facility, 2010)
